# From PMC6919601, “Identification of Plasmodium dipeptidyl aminopeptidase allosteric inhibitors by high throughput screening” (PLoS ONE, 2019)
# The whole screen tested about 110,000 compounds, of which about 230 (0.21%) showed an effect of 50% or more. The list shows a part of the results.
# Target: DPAP1 (Plasmodium falciparum, UniProt Q8IIJ9)
# Test: primary screen, percent inhibition; read by cleavage of a fluorogenic dipeptide substrate; higher = more effect of the substance
# Parameters: species or system P. falciparum D10 trophozoite lysates; single well
# 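Note: 30 min substrate incubation versus DMSO and 10 µM JCP410 controls.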
# Sequence of DPAP1 (Q8IIJ9 whole entry, looked up): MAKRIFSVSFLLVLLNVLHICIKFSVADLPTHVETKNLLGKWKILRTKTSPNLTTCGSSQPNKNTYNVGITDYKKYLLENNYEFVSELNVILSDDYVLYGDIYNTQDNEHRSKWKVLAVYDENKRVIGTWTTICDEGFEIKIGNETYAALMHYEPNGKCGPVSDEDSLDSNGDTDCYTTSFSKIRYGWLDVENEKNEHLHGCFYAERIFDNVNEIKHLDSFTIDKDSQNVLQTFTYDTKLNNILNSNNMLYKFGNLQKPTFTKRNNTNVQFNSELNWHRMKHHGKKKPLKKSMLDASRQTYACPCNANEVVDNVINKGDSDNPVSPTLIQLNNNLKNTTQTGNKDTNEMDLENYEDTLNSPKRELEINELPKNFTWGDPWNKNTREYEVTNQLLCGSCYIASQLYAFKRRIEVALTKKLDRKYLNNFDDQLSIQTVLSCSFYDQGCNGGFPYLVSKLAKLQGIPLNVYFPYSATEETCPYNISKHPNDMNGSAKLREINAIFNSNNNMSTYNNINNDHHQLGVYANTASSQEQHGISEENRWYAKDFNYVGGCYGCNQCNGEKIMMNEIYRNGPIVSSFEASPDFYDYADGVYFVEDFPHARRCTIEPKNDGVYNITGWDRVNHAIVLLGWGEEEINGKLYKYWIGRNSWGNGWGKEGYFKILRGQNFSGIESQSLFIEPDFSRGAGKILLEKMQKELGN
row,SMILES,% Inhibition @ 10 uM [%]
1,Cc1ccc(OC2OCC(O)C(O)C2O)cc1 (centres unmarked),-5.65
2,CC(C)c1ccc(NC(=O)c2ccccc2F)cc1,-5.57
3,COCCCNC(=O)C1=C(C)C(=O)OC12CCN(C(C)=O)CC2,-2.69
4,COc1ccccc1-c1cc(=O)n(CC(=O)N2CCC(N3CCCCC3)CC2)c2c1CCCC2,5.09
5,Cc1ccc(O)c(-c2cc(-c3ccccc3Cl)[nH]n2)c1,-0.414
6,CC(CCN1CCCC(O)C1)c1ccccc1 (centres unmarked),-2.24
7,CC(C)NC(=O)c1c(O)c2ccccc2n(C)c1=O,2.92
8,CN(C)c1ccc(CN(C(=O)c2ccc(Br)cc2)C2CCS(=O)(=O)C2)cc1 (centres unmarked),-5.49
9,CCN(CC)CC#CC(C)(CC)OC(C)=O (centres unmarked),5.77
10,CCOc1ccc(C2C3=C(O)CC(C)(C)CC3=NC(C)=C2C(=O)Nc2ccccc2OC)cc1OC (centres unmarked),-5.96
11,Nc1ccc2nc(SCC(=O)N3CCOCC3)sc2c1,4.01
12,CNC(=O)C12N=CNN=C1N(C)C(=O)N2C (centres unmarked),-1.69
13,COc1ccccc1/C=C/C=c1\sc2nc(-c3ccccc3OC)nn2c1=O,0.561
14,Cc1ccc(-c2ccc(/C=C3\SC(=O)N(C)C3=O)o2)c(Br)c1,2.17
15,Cc1sc(NC(=O)C2CC=CCC2C(=O)O)c(C#N)c1-c1ccccc1 (centres unmarked),-2.07
16,O=C(O)c1ccccc1S(=O)(=O)Cc1ccccc1,0.983
17,CN(C)CCN(C(=O)COc1ccccc1)c1nc2cc3c(cc2s1)OCO3,-0.35
18,COc1cc(CN2CCC(Cc3ccccc3)CC2)cc(OC)c1,-4.58
19,CC(=O)c1ccc(NS(=O)(=O)c2cc(S(=O)(=O)c3ccccc3)ccc2C)cc1,-7.27
20,COc1cccc2c(O)c3cccc(OC)c3nc12,-10.9
21,COc1cc2nc(-c3ccc(N(C)C)cc3)n(C)c2cc1OC,-3.03
22,Cc1cc2c(cc1/C=C1/S/C(=N/c3ccccc3)N(C)C1=O)OCO2,-1.27
23,Cc1ccc(NC(=O)Nc2ccccc2)cc1F,-7.06
24,Cc1cc2ncc(-c3ccc(Cl)cc3)c(N)n2n1,-2.67
25,Cc1cccc(N(CC(=O)N2CCN(c3cc(Cl)ccc3C)CC2)S(C)(=O)=O)c1,-1.27
26,O=C(C1=C(O)C(=O)N(CCCn2ccnc2)C1c1ccc(O)cc1)c1cc2ccccc2o1 (centres unmarked),-0.28

row,SMILES,% Inhibition @ 10 uM [%]
1,Cc1ccc(CCNC(=O)CN(C)S(=O)(=O)c2c[nH]cn2)cc1,1.63
2,COc1ccc(C(O)c2nc3ccccc3n2C(C)C)cc1OC (centres unmarked),-1.79
3,CCCC1=C(C(=O)OCC)C(c2ccc(CC)cc2)NC(=O)N1 (centres unmarked),-1.66
4,CCN(CC)CCNC(=O)c1cc(C)nc2c1c(C)nn2-c1ccccc1,6.84
5,Cc1noc(/C=C/c2cccs2)c1S(=O)(=O)N1CCC(C(=O)Nc2nccs2)CC1,-1.28
6,CC(=O)C1=C(O)C(=O)N(C)C1c1ccc(N(C)C)cc1 (centres unmarked),2.65
7,Oc1nc2c(s1)C(c1ccccc1)C1C3CCC(C3)C1S2 (centres unmarked),3.37
8,C=CCn1c(CC)nc2c(sc3nc4c(cc32)COC(C)(C)C4)c1=O,10.9
9,Cc1ccc2oc(=O)c3cc(C(=O)NC(C)CCc4ccco4)sc3c2c1 (centres unmarked),-3.37
10,NS(=O)(=O)c1ccc(CCNC(=O)c2cnn(-c3ccccc3)c2-n2cccc2)cc1,-1.58
11,Nc1c(C(=O)NCCC2=CCCCC2)sc2ccc(S(=O)(=O)N3CCCCC3)cc12,5.23
12,N#CC1=C2SCN(C3CCCC3)CN2C(=O)CC1c1cccs1 (centres unmarked),48.2
13,COC(=O)c1c(-c2ccccc2)csc1NS(=O)(=O)c1cc(-c2cc(C)no2)ccc1C,-1.19
14,COc1ccc(S(=O)(=O)Nc2cncc(C(=O)NCc3ccc4c(c3)OCO4)c2)cc1,-4.05
15,CCOC(=O)NC1CS(=O)(=O)CC1NCC(=O)O (centres unmarked),-3.5
16,c1ccc(/N=c2\scc(-c3ccccc3)n2CCCN2CCOCC2)cc1,-4.26
17,CCOCCCNC(=O)C(c1ccc(C)cc1)N(Cc1cccs1)C(=O)c1cnccn1 (centres unmarked),1.26
18,CN(C)c1nc(N)nc(CSc2nc3c(c(=O)n(C)c(=O)n3C)n2C)n1,-9.47
19,O=C(NCc1cccnc1)C(=O)NCc1ccc2c(c1)OCO2,-4.04
20,O=C(Nc1ccc(Cl)cc1)c1cccs1,2.86
21,COCCN(Cc1ccco1)C(=O)Nc1cn(C)c(=O)c2ccccc12,9.42
22,O=C(CN1Cc2ccccc2C1=O)NCCCc1ccccc1,-4.1
23,CCOc1ccccc1C(=O)N(Cc1ccc(Cl)cc1)Cc1ccco1,4.47
24,CCc1nnc(NC(=O)CSc2ccc3nnc(-c4ccc(Cl)cc4)n3n2)s1,1.73
25,Cc1ccc(CNC(=O)Cc2nc3nc(C)cc(C)n3n2)cc1,-3.94
26,Cc1ccccc1C(=O)c1cccn1CC(=O)NCCN1CCCCC1C (centres unmarked),1.15

row,SMILES,% Inhibition @ 10 uM [%]
1,O=C(Nn1cnnc1)c1ccco1,2.45
2,CCc1ccc(CNCc2c(C(=O)O)n(Cc3cccc(F)c3)c3ccccc23)cc1,-0.804
3,CC(NC(=O)c1cc(-c2ccc(O)cc2)on1)c1ccccc1 (centres unmarked),4.5
4,Cc1cccn2c(=O)c3cc(C(=O)NCc4ccc5c(c4)OCO5)n(C)c3nc12,6.81
5,CC(C)CN(CC(C)C)c1nnc(NC(=O)NCc2ccco2)s1,-6.58
6,CC12CC(c3ccccc3O1)C(S(=O)(=O)c1ccccc1)C(=O)N2 (centres unmarked),2.57
7,COc1ccc(/C(O)=C/C=N/c2cc(C(C)(C)C)on2)cc1,-15.2
8,CC(=O)C1=C(NCc2nc3ccccc3[nH]2)CC(C)(C)CC1=O,2.99
9,Cc1oc(-c2cccc(Cl)c2)nc1CS(=O)(=O)CC(=O)NCc1ccc2c(c1)OCO2,-1.43
10,O=C(CCn1ccc2cc(S(=O)(=O)N3CCCC3)ccc21)NCCc1cccs1,1.11
11,CC(C)c1ccc(S(=O)(=O)c2nnn3c2nc(NCc2ccccc2)c2sccc23)cc1,-2.55
12,CC(C)(C)OC(=O)N1CCC(c2nc(N3CCOCC3)ncc2C(=O)O)CC1,-6.62
13,CC1=CC(c2ccccc2)n2nc(N3C(=O)C4CCCCC4C3=O)nc2N1 (centres unmarked),3.25
14,CC(C)C[C@H](NC(=O)c1ccc(-c2ccccc2-c2ccccc2)cc1)C(=O)NCC#N,-1.41
15,CSc1ccccc1NC(=O)c1sccc1C,2.51
16,COc1ccccc1NC(=O)C1=C(C)Nc2ncnn2C1c1ccc(OCc2ccccc2)cc1 (centres unmarked),5.37
17,CC(NC(=O)CCC(=O)NC(C)c1ccccc1)c1ccccc1 (centres unmarked),-14.3
18,CSc1ccc(CCNCc2c(C(=O)O)c(C)n(Cc3c(F)cccc3Cl)c2C)cc1,-5.49
19,CC(C)Oc1ccc(/C=C2/NC(=O)NC2=O)cc1,-4.93
20,COc1ccc(S(=O)(=O)CC(=O)c2cc3cccc(C)c3oc2=O)cc1,-1.47
21,CC1CC(Nc2ccccc2)c2ccccc2N1C(=O)c1ccc(Br)cc1 (centres unmarked),1.35
22,CC(=O)Nc1nc2ccccc2n1Cc1ccccc1,6.04
23,Cc1sc2nc(SCc3ccccc3)n(C)c(=O)c2c1C,3.92
24,Fc1ccccc1N1CCN(Cc2cccc(C(F)(F)F)c2)CC1,-0.127
25,COc1ccc(C2CC(C(F)(F)F)n3ncc(C(=O)N(C)Cc4ccccc4)c3N2)cc1OC (centres unmarked),3.25
26,O=C(Cn1nc(C(F)(F)F)cc1C1CC1)Nc1ccc(F)c(Cl)c1,2.4

row,SMILES,% Inhibition @ 10 uM [%]
1,Cc1ccc2c(c1)c1nc3ccccc3nc1n2CC(=O)O,-2.98
2,CS/C(=N\C(CC1CCCCC1)C(=O)NCC#N)NS(C)(=O)=O (centres unmarked),-4.82
3,COc1ccc(NC(=O)CSc2nnnn2-c2ccccc2)cc1,5.2
4,CCC(=O)N1C(C(=O)NCCc2ccc(Cl)cc2)CSC12CCN(C)CC2 (centres unmarked),1.11
5,COc1ccc(CCNC(=O)C(C(C)C)N2C(=O)c3ccccc3C2=O)cc1 (centres unmarked),-4.16
6,COc1cccc(-c2cc(C(=O)Nc3ccc(S(N)(=O)=O)cc3)c3ccccc3n2)c1,5.44
7,CCOC(=O)c1ncn(-c2ccccc2)n1,-2.78
8,COc1cc(CO)ccc1OCc1ccc(Cl)cc1,-1.38
9,COc1ccc(Sc2ccccc2CC#N)cc1,0.0974
10,Cc1nnc2c3ccccc3nc(N(C)C3CCCCC3)n12,-7.08
11,CCn1ncc(/C=c2/sc3n(c2=O)C(c2ccc(C)o2)C(C(=O)Nc2ccccc2)=C(C)N=3)c1C (centres unmarked),0.727
12,CCC(=O)N1N=C2c3cc(OC)ccc3CCC2C1c1ccccc1 (centres unmarked),0.812
13,N#Cc1sc2nc3c(cc2c1N)CCC3,-2.81
14,CC1=C(C(=O)N2CCCCCC2)C2(CCCCC2)OC1=O,1.55
15,COc1ccccc1C(=O)N/C(=C\c1ccc2c(c1)OCO2)C(=O)O,7.1
16,CCc1nc(SCC(=O)Nc2ccc(OC)cc2)c(C#N)cc1C,-9.55
17,Cc1ccc(N(CC(=O)NCc2ccco2)S(=O)(=O)c2ccccc2)cc1C,2.37
18,NS(=O)(=O)c1ccc(CCNC(=O)CSc2ncccc2C(=O)O)cc1,-5.92
19,CCOC(=O)c1c(NC(=O)CSc2nnc3c(n2)[nH]c2ccccc23)sc2c1CCN(C)C2,26.4
20,O=C1C2C3CCC(C3)C2C(=O)N1c1ccc(O)cc1 (centres unmarked),-4.72
21,Cc1ccc(CNC(=O)CCCCCNc2nc(S)nc3ccccc23)cc1,7.04
22,COc1ccc(Br)cc1CN1CCC2(C=Cc3ccccc32)CC1,0.0792
23,O=C(CCCOc1ccc(Cl)cc1Cl)N1CCCC1,4.66
